Among all 52,000 compounds or so, about 4,300 (8.3%) were called active. Rule as the data show it: active = survival mostly below about 52% (no sharp cut-off); inactive = mostly above about 56%. The list shows a part of the results.
system: DeltatarO mutant; experiment: growth inhibition of S. aureus wild type versus tarO mutant, primary screen, teichoic acid synthesis inhibitors, RN4220, OD600 (AID 463173); details: OD600, 18 h, stronger effect = lower value, screened at 18.75 µg/mL (by protocol)

Row | Structure (SMILES) | survival
1 | O=C(Cc1ccc(NC(=O)N2CCSc3ncccc32)cc1)NCCc1ccccc1 | inactive: 117%
2 | CCC(=O)N(CCN1CCOCC1)Cc1cc2cc3c(cc2nc1Cl)OCO3 | inactive: 78%
3 | COc1ccc(-n2c3c(cc(-c4nc(-c5ccc(Cl)cc5)cs4)c2=O)C(=O)CC(C)(C)C3)cc1 | inactive: 140%
4 | CCn1nc(CC(=O)Nc2nnc(CC(=O)N3CCCC3)s2)c2ccccc2c1=O | inactive: 101%
5 | O=C1c2[nH]nc(-c3ccc(Br)cc3)c2C(c2cccc(O)c2)N1c1ccc(Cl)cc1 (stereo not drawn) | active: -10%
6 | Cc1ccc2scc(N3CCN(c4ccc(F)cc4)CC3)c(=O)c2c1 | inactive: 85%
7 | CC1CCN(C(=O)c2ccc3c(c2)OCCO3)CC1 | inactive: 96%
8 | COc1ccc(CCNC(=O)c2ccc3c(c2)N(Cc2cccc(Cl)c2)C(=O)CS3)cc1OC | active: 54%
9 | COc1ccc(C2c3c(n(C)c4ccccc34)C(=O)N2CC(=O)Nc2ccccc2F)cc1 (stereo not drawn) | inactive: 97%
10 | O=C(NCc1ccc(Cl)cc1)c1cnc2sc(N3CCCC3)nn2c1=O | inactive: 72%
11 | COc1ccc(Cl)cc1NC(=O)CN(c1cccc(C)c1C)S(=O)(=O)c1ccccc1 | inactive: 72%
12 | O=C(CC1N=C2c3ccccc3N=C(SCc3ccccc3F)N2C1=O)NCc1ccc2c(c1)OCO2 (stereo not drawn) | inactive: 105%
13 | COc1cc(C)ccc1OCCn1c(-c2ccc(Cl)cc2)nc2ccccc2c1=O | inactive: 62%
14 | O=S(=O)(Cc1ccccc1)N1CCCC(c2nc(-c3cccs3)no2)C1 (stereo not drawn) | inactive: 72%
15 | COc1ccc2c(c1)sc1ncc(C(=O)NCc3cccc(Cl)c3)c(=O)n12 | inactive: 67%
16 | Cc1cc(C)c(NC(=O)c2cc(S(=O)(=O)N3CCN(c4ccccc4F)CC3)ccc2F)c(C)c1 | inactive: 73%
17 | COc1ccc(N2CC(NC(=O)CCc3ccccc3)CC2=O)cc1OC (stereo not drawn) | inactive: 94%
18 | Cc1ccc2oc(=O)n(CCCOc3ccc(Cl)cc3)c2c1 | active: -3%
19 | CCOC(=O)N1CCc2c(sc3c2c(=O)n(-c2ccc(CC)cc2)c(=O)n3CC(=O)Nc2ccc(C)cc2)C1 | inactive: 77%
20 | CCCCn1c(Cc2ccccc2)nnc1SCC(=O)NC | inactive: 73%

Row | Structure (SMILES) | survival
21 | CCNc1ccc(-c2nc(-c3ccco3)no2)cc1[N+](=O)[O-] | inactive: 51%
22 | O=C(O)CS(=O)(=O)c1nc2ccccc2s1 | inactive: 88%
23 | CCOc1ccc(CNC(=O)c2ccc3c(c2)c(C)c(C)n3Cc2ccc(Cl)cc2)cc1 | inactive: 67%
24 | O=C(NCCOCCn1c(=O)oc2ccccc21)Nc1ccc(Cl)cc1 | inactive: 81%
25 | Cc1ccccc1NC(=O)c1c(NC(=O)Cc2ccccc2)sc2c1CCC2 | active: 29%
26 | C=CCN1C(=O)C(Cc2ccc(F)cc2)S/C1=N\N=C/c1ccco1 (stereo not drawn) | inactive: 71%
27 | CCS(=O)(=O)N1CCc2cc(C(=O)NCc3ccccc3)ccc21 | inactive: 68%
28 | Cc1ccc(-c2nc3nc(C)cc(Nc4ccccc4O)n3n2)cc1 | inactive: 75%
29 | COc1cccc(NC(=O)c2oc3ccccc3c2C)c1 | inactive: 106%
30 | CC(=O)N1SC(N)=NC1c1ccccc1 (stereo not drawn) | inactive: 97%
31 | Cc1cc(C)nc(Sc2ccc3nnnn3n2)n1 | inactive: 81%
32 | Cc1ccc2cc(CN(C(=O)c3cnccn3)C3CCCCC3)c(=O)[nH]c2c1 | inactive: 84%
33 | CCOC(=O)c1ccccc1NC(=O)N1CCC(N2CCN(Cc3ccccc3)C(=O)C2=O)CC1 | inactive: 80%
34 | CCOC(=O)c1c(C(=O)CSc2ncc(-c3ccc(F)cc3)n2Cc2ccco2)sc2c1CCCC2 | inactive: 59%
35 | O=C(Cn1c(=O)n(CC2CCCO2)c(=O)c2ccccc21)Nc1cccc(Cl)c1 (stereo not drawn) | inactive: 79%
36 | Cc1ccc(CNC(=O)c2nn(C)c3c2CS(=O)(=O)c2ccccc2-3)cc1 | inactive: 76%
37 | CCOC(=O)c1ccc(N2C(=O)c3n[nH]c(-c4ccco4)c3C2c2ccc(O)c(OC)c2)cc1 (stereo not drawn) | inactive: 118%
38 | CCN(CC)CCNC(=O)c1nn(C)c2c1CS(=O)(=O)c1ccccc1-2 | inactive: 59%
39 | Cc1cn(C)c(CC(=O)NCc2ccccc2Cl)c1C(=O)O | inactive: 66%
40 | COc1ccc(-n2nc(C(=O)N3CCN(c4cccc(C)c4C)CC3)c3c4ccccc4n(C)c3c2=O)cc1 | inactive: 108%

Row | Structure (SMILES) | survival
41 | O=C(CSCc1nc2cccnc2n1C1CCCCC1)NCc1cccc(Cl)c1 | inactive: 123%
42 | CCC(C)OC(=O)/C(C#N)=C\c1ccc(-c2ccccc2Cl)o1 (stereo not drawn) | active: 58%
43 | O=C(Nc1nc2nc(-c3ccccc3)cc(=O)n2[nH]1)c1ccc(Cl)cc1 | inactive: 65%
44 | CNC(=O)COc1ccc(NC(=O)CCn2nc(-c3ccc(C)cc3)c3ccccc3c2=O)cc1 | inactive: 73%
45 | COc1cc(OC)c(NS(=O)(=O)c2cc(-c3cnc(C)o3)ccc2OC)cc1Cl | inactive: 67%
46 | CCOc1ccc(OCC)c(NC(=O)CCC(=O)N2CCOc3ccccc32)c1 | inactive: 103%
47 | COCCCNc1nc2c(S(=O)(=O)c3ccc(C)c(C)c3)nnn2c2ccc(Cl)cc12 | inactive: 104%
48 | Cc1ccc(NC(=O)CN2C(=O)CCn3nc(-c4cccn4C)cc32)cc1 | inactive: 78%
49 | Cc1ccc2oc(-c3cc(NC(=O)c4ccco4)ccc3Cl)nc2c1 | active: 0%
50 | CSc1ncc(C(=O)Nc2ccc(F)cc2F)c(-c2ccccc2)n1 | inactive: 71%
51 | CCCC1=Nc2cc(C(=O)NCCc3ccc(OC)cc3OC)ccc2Sc2ccccc21 | inactive: 99%
52 | COc1ccc(C(=O)N2CCC(c3nc(-c4ccc(S(=O)(=O)N5CCCC5)cc4)no3)CC2)cc1 | inactive: 94%
53 | COC(=O)c1cc2occc2n1Cc1cccc(C)c1 | active: -6%
54 | COc1ccc(C(=O)Nc2ccc(-c3nc4ccccc4s3)cc2C)cc1Cl | inactive: 48%
55 | COCCNC(=O)CCN1C(=O)c2cccnc2Oc2ccc(C)cc21 | inactive: 101%
56 | CCCCn1c(SCC(=O)N(C(C)C)C(C)C)nc2c1c(=O)n(C)c(=O)n2C | inactive: 88%
57 | O=c1c2ccccc2n(Cc2ccccc2F)c(=O)n1-c1cccc(F)c1 | inactive: 68%
58 | Cc1ccc(C(=O)Nc2onc3c2CCCC3)cc1 | active: 46%
